{
  "source": "PubChem BioAssay AID651597",
  "about": "(National Center for Advancing Translational Sciences (NCATS), 2012)",
  "note": "Screen size: about 1,100 compounds; about 390 (35%) were called active. This list was built around the results that the source calls inconclusive (neither active nor inactive); the mix of calls is not that of the screen. Calls follow the shape of the dose curve; as a rule, active = well fitted inhibition curve with a large enough effect; inconclusive = small, poorly fitted or top-dose-only effect; inactive = flat fitted curve, though single readings scatter. Potencies beside an inconclusive call are fits to weak or partial responses and may not hold up. Potency is read from the fitted curve at half-maximal effect; tags tell the direction and shape of the fitted curve.",
  "data": [
    {"target": "Luciferin 4-monooxygenase (Photinus pyralis) (UniProt P08659)", "experiment": "qHTS of Nrf2 Activators: Hit Validation in Secondary FLuc Assay; also: nearly all actives have a fitted effect of over 65% in size", "conditions": "firefly luciferase inhibition counter-screen, luminescence; series mostly up to 57.5 µM", "how_it_was_run": "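Counter-screen on purified firefly luciferase with ATP and D-luciferin at Km concentrations; compounds flagged if they inhibit the enzyme, indicating possible reporter stabilization rather than ARE activation.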", "values": [
      {"smiles": "O=C(/C=C/c1ccccc1)Nc1nc(-c2cccs2)ns1", "Potency": "inconclusive: 6.01 µM [inhibitor, partial curve]"},
      {"smiles": "O=c1cc(-c2ccccc2)nc2c(Cl)cc(Cl)cn12", "Potency": "inconclusive: 3.79 µM [inhibitor, full curve]"},
      {"smiles": "N#C/C(=C\\c1ccccc1)c1ccccn1", "Potency": "active: 9.53 µM"},
      {"smiles": "Cn1c(=O)c2nc(NCc3ccccc3)sc2n(C)c1=O", "Potency": "inactive"},
      {"smiles": "COC(=O)c1ccc2nc(-c3cccc(Br)c3)c(CC3CCCCC3)n2c1", "Potency": "inactive"},
      {"smiles": "O=C1Nc2cccnc2N(C(=O)CCl)c2ccccc21", "Potency": "inactive"},
      {"smiles": "C/C(=N\\NC(=S)NCC(C)(C)C)c1cc(F)cc(F)c1O", "Potency": "inconclusive: 37.9 µM [inhibitor, single point]"},
      {"smiles": "O=C(Nc1nccs1)c1cc(-c2ccco2)nc2ccccc12", "Potency": "active: 6.01 µM"},
      {"smiles": "Clc1nc(NCc2ccco2)nc(N2CCCCC2)n1", "Potency": "inactive"},
      {"smiles": "Cc1noc(C)c1COc1ccccc1C(=O)NNC(=O)c1ccccc1F", "Potency": "inactive"},
      {"smiles": "O=C(/C=C/c1ccco1)Nc1ccc(-c2nc3ccccc3[nH]2)cc1", "Potency": "inconclusive: 12 µM [inhibitor, partial curve]"},
      {"smiles": "O=C(Nc1ncnc2sc3c(c12)CCC3)c1ccco1", "Potency": "inactive"},
      {"smiles": "O=[N+]([O-])c1ccc(NN=Cc2ccco2)nc1", "Potency": "inconclusive: 6.75 µM [inhibitor, full curve]"},
      {"smiles": "O=C(O)/C=C/C(=O)c1c(-c2ccccc2)[nH]c2ccccc12", "Potency": "inconclusive: 21.3 µM [inhibitor, single point]"},
      {"smiles": "CCn1c(SCC(=O)N/N=C/C=C\\c2ccco2)nc2ccccc21", "Potency": "inconclusive: 15.1 µM [inhibitor, partial curve]"},
      {"smiles": "COC(=O)c1ccc(Cl)cc1NC(=O)/C=C/c1ccc(C)o1", "Potency": "inconclusive: 21.3 µM [inhibitor, partial curve]"},
      {"smiles": "CCOc1cc(C=O)cc(N=Nc2cccc([N+](=O)[O-])c2)c1O", "Potency": "inconclusive: 30.1 µM [inhibitor, single point]"},
      {"smiles": "CC(OC(=O)/C=C/c1ccc2ccccc2n1)C(=O)Nc1ccc(S(N)(=O)=O)cc1", "note": "(stereo not given)", "Potency": "inactive"},
      {"smiles": "COc1ccc2c(c1)Cc1c-2cc(Br)c(N)c1Br", "Potency": "inactive"},
      {"smiles": "O=C(Nc1cccc2nsnc12)c1cccs1", "Potency": "inconclusive: 21.3 µM [inhibitor, single point]"},
      {"smiles": "c1ccc(N=Nc2cn[nH]c2-c2ccco2)cc1", "Potency": "inconclusive: 13.5 µM [inhibitor, partial curve]"},
      {"smiles": "O=c1oc2ccccc2cc1-c1nc2c(s1)CCc1ccccc1-2", "Potency": "inconclusive: 15.1 µM [inhibitor, partial curve]"},
      {"smiles": "N#Cc1c(-c2ccco2)cc(-c2ccccc2)[nH]c1=O", "Potency": "inconclusive: 19 µM [inhibitor, single point]"},
      {"smiles": "Cc1ccccc1CS(=O)(=O)c1cnc2ccccc2n1", "Potency": "inactive"},
      {"smiles": "Cc1csc2c(=O)sc(NC(=O)c3cccs3)nc12", "Potency": "inconclusive: 8.49 µM [inhibitor, partial curve]"},
      {"smiles": "Clc1cccc(Cc2c(-c3ccco3)nc3c4ccccc4ccn23)c1", "Potency": "active: 1.9 µM"},
      {"smiles": "Cc1cccn2c(=O)c3cc(C#N)c(=O)n(-c4nnc(SCc5ccc(Cl)cc5)s4)c3nc12", "Potency": "inconclusive: 26.9 µM [inhibitor, single point]"},
      {"smiles": "O=C(Nc1cccc(NC(=O)c2cccc(Cl)c2)c1)c1cccnc1", "Potency": "inconclusive: 13.5 µM [inhibitor, partial curve]"},
      {"smiles": "O=C1S/C(=C\\C=C\\c2ccco2)C(=O)N1c1ccccc1", "Potency": "active: 6.75 µM"},
      {"smiles": "O=C(CSc1nc2ccccc2s1)N/N=C/c1ccco1", "Potency": "inconclusive: 16.9 µM [inhibitor, partial curve]"},
      {"smiles": "Cn1c(N)c(C(=O)COC(=O)c2nc(Cl)ccc2Cl)c(=O)n(C)c1=O", "Potency": "inactive"},
      {"smiles": "Cc1nc(Nc2ccccc2F)c2oc3ccccc3c2n1", "Potency": "inconclusive: 15.1 µM [inhibitor, partial curve]"},
      {"smiles": "Cn1c(=O)n(CCc2ccccc2)c(=O)c2c1nc1n2CCN1Cc1ccco1", "Potency": "inactive"},
      {"smiles": "Cc1nc2nc(-c3ccccc3)nn2c(C)c1Cl", "Potency": "active: 3.38 µM"},
      {"smiles": "COc1cc(Br)cc(/C=C/c2ccc3cccc(O)c3n2)c1OC", "Potency": "inconclusive: 9.53 µM [inhibitor, partial curve]"},
      {"smiles": "O=C(Nc1cccc(F)c1)c1ccco1", "Potency": "inconclusive: 37.9 µM [inhibitor, single point]"},
      {"smiles": "CCc1nnc(NC(=O)/C=C/c2ccco2)s1", "Potency": "inconclusive: 13.5 µM [inhibitor, partial curve]"},
      {"smiles": "COCCN(C(=O)c1ccco1)c1nc(-c2ccccc2)cs1", "Potency": "inconclusive: 21.3 µM [inhibitor, single point]"},
      {"smiles": "O=C(Nc1ncc2c(n1)CC(c1ccco1)CC2=O)c1ccc(Cl)cc1", "note": "(stereo not given)", "Potency": "inconclusive: 30.1 µM [inhibitor, single point]"},
      {"smiles": "Oc1ccccc1C=NN=Cc1c(O)ccc2ccccc12", "Potency": "active: 3.01 µM"},
      {"smiles": "O=C(N/N=C/c1c(O)ccc2ccccc12)Nc1ccccc1", "Potency": "inconclusive: 7.57 µM [inhibitor, full curve]"},
      {"smiles": "O=C(NNC(=O)c1nc(Cl)ccc1Cl)c1ccc(F)cc1", "Potency": "inactive"},
      {"smiles": "O=C(Nc1ccccn1)Nc1ccccc1Cl", "Potency": "inconclusive: 3.38 µM [inhibitor, full curve]"},
      {"smiles": "Cc1cccn2c(=O)c(C=NCCO)c(NCc3ccco3)nc12", "Potency": "inactive"},
      {"smiles": "O=[N+]([O-])c1cccc2ccc(/C=C/c3ccc(Cl)cc3)nc12", "Potency": "inconclusive: 3.01 µM [inhibitor, full curve]"},
      {"smiles": "NC(=O)c1oc2ccccc2c1NC(=O)c1ccco1", "Potency": "inconclusive: 37.9 µM [inhibitor, single point]"},
      {"smiles": "Cc1ccc2oc(-c3cccc(NC(=O)c4ccc(Br)o4)c3)nc2c1", "Potency": "active: 8.49 µM"},
      {"smiles": "COc1ccc(S(=O)(=O)NCCc2csc3nc(-c4ccc(Cl)cc4)nn23)cc1C", "Potency": "inactive"},
      {"smiles": "O=C(Nc1cc(-c2nc3ncccc3o2)ccc1Cl)c1ccco1", "Potency": "inconclusive: 13.5 µM [inhibitor, partial curve]"},
      {"smiles": "CC(C)(C)C(=O)/C=c1\\[nH]c(=O)/c(=C\\c2ccccc2F)s1", "Potency": "inconclusive: 4.78 µM [inhibitor, full curve]"}
    ]}
  ]
}
